Results: patent publication US9073916B2, “Prodrug forms of kinase inhibitors and their use in therapy” (AUCKLAND UNISERVICES LIMITED, priority 2009, dated 2015)

Assay: Chemical stability by HPLC
Conditions: 24 h in α-MEM at 37° C.

Compound: Cn1cnc([N+](=O)[O-])c1C[N+](C)(C)C/C=C/C(=O)Nc1ccc2ncnc(Nc3cccc(Br)c3)c2c1.[Br-] [Compound 20, (2E)-4-{[4-(3-bromoanilino)-6-quinazolinyl]amino}-N,N-dimethyl-N-[(1-methyl-4-nitro-1H-imidazol-5-yl)methyl]-4-oxo-2-buten-1-ammonium bromide]
- release of effector 11 by HPLC: No release of effector 11 was observed
